Measurements reported in the supplement of paper PMC11876631.
± gives the standard deviation of the averaged measurements. Laboratory Escherichia coli strains with one amino-acid change in an essential protein, pooled on minimal glucose agar with carbenicillin or gentamicin at twice the control MIC (plus kanamycin and chloramphenicol for the plasmids), 48 h. Fold change of barcode share against drug-free plates; higher = less susceptible. Active = above 20 in both replicates (the paper's putatively resistant). '<' = one read or none on drug, '>' = one read or none on a drug-free plate. Shares are relative, so most strains fall below 1 when a few take over. Listed are strains with at least 15 reads on both drug-free plates, and hits; most hits rest on fewer reference reads. Replicate rank correlation about 0.5. Edits are read from barcodes.

B1: asd I110D (protein)
chain: MKNVGFIGWRGMVGSVLMQRMVEERDFDAIRPVFFSTSQLGQAAPSFGGTTGTLQDAFDLEALKALDIIVTCQGGDYTNEIYPKLRESGWQGYWIDAASSLRMKDDAIIDLDPVNQDVITDGLNNGIRTFVGGNCTVSLMLMSLGGLFANDLVDWVSVATYQAASGGGARHMRELLTQMGHLYGHVADELATPSSAILDIERKVTTLTRSGELPVDNFGVPLAGSLIPWIDKQLDNGQSREEWKGQAETNKILNTSSVIPVDGLCVRVGALRCHSQAFTIKLKKDVSIPTVEELLAAHNPWAKVVPNDREITMRELTPAAVTGTLTTPVGRLRKLNMGPEFLSAFTVGDQLLWGAAEPLRRMLRQLA
B2: asd L139A (protein)
chain: MKNVGFIGWRGMVGSVLMQRMVEERDFDAIRPVFFSTSQLGQAAPSFGGTTGTLQDAFDLEALKALDIIVTCQGGDYTNEIYPKLRESGWQGYWIDAASSLRMKDDAIIILDPVNQDVITDGLNNGIRTFVGGNCTVSAMLMSLGGLFANDLVDWVSVATYQAASGGGARHMRELLTQMGHLYGHVADELATPSSAILDIERKVTTLTRSGELPVDNFGVPLAGSLIPWIDKQLDNGQSREEWKGQAETNKILNTSSVIPVDGLCVRVGALRCHSQAFTIKLKKDVSIPTVEELLAAHNPWAKVVPNDREITMRELTPAAVTGTLTTPVGRLRKLNMGPEFLSAFTVGDQLLWGAAEPLRRMLRQLA
B3: asd I110P (protein)
chain: MKNVGFIGWRGMVGSVLMQRMVEERDFDAIRPVFFSTSQLGQAAPSFGGTTGTLQDAFDLEALKALDIIVTCQGGDYTNEIYPKLRESGWQGYWIDAASSLRMKDDAIIPLDPVNQDVITDGLNNGIRTFVGGNCTVSLMLMSLGGLFANDLVDWVSVATYQAASGGGARHMRELLTQMGHLYGHVADELATPSSAILDIERKVTTLTRSGELPVDNFGVPLAGSLIPWIDKQLDNGQSREEWKGQAETNKILNTSSVIPVDGLCVRVGALRCHSQAFTIKLKKDVSIPTVEELLAAHNPWAKVVPNDREITMRELTPAAVTGTLTTPVGRLRKLNMGPEFLSAFTVGDQLLWGAAEPLRRMLRQLA
B4: murA L239A (protein)
chain: MDKFRVQGPTKLQGEVTISGAKNAALPILFAALLAEEPVEIQNVPKLKDVDTSMKLLSQLGAKVERNGSVHIDARDVNVFCAPYDLVKTMRASIWALGPLVARFGQGQVSLPGGCTIGARPVDLHISGLEQLGATIKLEEGYVKASVDGRLKGAHIVMDKVSVGATVTIMCAATLAEGTTIIENAAREPEIVDTANFLITLGAKISGQGTDRIVIEGVERLGGGVYRVLPDRIETGTFAVAAAISRGKIICRNAQPDTLDAVLAKLRDAGADIEVGEDWISLDMHGKRPKAVNVRTAPHPAFPTDMQAQFTLLNLVAEGTGFITETVFENRFMHVPELSRMGAHAEIESNTVICHGVEKLSGAQVMATDLRASASLVLAGCIAEGTTVVDRIYHIDRGYERIEDKLRALGANIERVKGE
B5: murA I169A (protein)
chain: MDKFRVQGPTKLQGEVTISGAKNAALPILFAALLAEEPVEIQNVPKLKDVDTSMKLLSQLGAKVERNGSVHIDARDVNVFCAPYDLVKTMRASIWALGPLVARFGQGQVSLPGGCTIGARPVDLHISGLEQLGATIKLEEGYVKASVDGRLKGAHIVMDKVSVGATVTAMCAATLAEGTTIIENAAREPEIVDTANFLITLGAKISGQGTDRIVIEGVERLGGGVYRVLPDRIETGTFLVAAAISRGKIICRNAQPDTLDAVLAKLRDAGADIEVGEDWISLDMHGKRPKAVNVRTAPHPAFPTDMQAQFTLLNLVAEGTGFITETVFENRFMHVPELSRMGAHAEIESNTVICHGVEKLSGAQVMATDLRASASLVLAGCIAEGTTVVDRIYHIDRGYERIEDKLRALGANIERVKGE
B6: murA I169W (protein)
chain: MDKFRVQGPTKLQGEVTISGAKNAALPILFAALLAEEPVEIQNVPKLKDVDTSMKLLSQLGAKVERNGSVHIDARDVNVFCAPYDLVKTMRASIWALGPLVARFGQGQVSLPGGCTIGARPVDLHISGLEQLGATIKLEEGYVKASVDGRLKGAHIVMDKVSVGATVTWMCAATLAEGTTIIENAAREPEIVDTANFLITLGAKISGQGTDRIVIEGVERLGGGVYRVLPDRIETGTFLVAAAISRGKIICRNAQPDTLDAVLAKLRDAGADIEVGEDWISLDMHGKRPKAVNVRTAPHPAFPTDMQAQFTLLNLVAEGTGFITETVFENRFMHVPELSRMGAHAEIESNTVICHGVEKLSGAQVMATDLRASASLVLAGCIAEGTTVVDRIYHIDRGYERIEDKLRALGANIERVKGE
B7: murA I169D (protein)
chain: MDKFRVQGPTKLQGEVTISGAKNAALPILFAALLAEEPVEIQNVPKLKDVDTSMKLLSQLGAKVERNGSVHIDARDVNVFCAPYDLVKTMRASIWALGPLVARFGQGQVSLPGGCTIGARPVDLHISGLEQLGATIKLEEGYVKASVDGRLKGAHIVMDKVSVGATVTDMCAATLAEGTTIIENAAREPEIVDTANFLITLGAKISGQGTDRIVIEGVERLGGGVYRVLPDRIETGTFLVAAAISRGKIICRNAQPDTLDAVLAKLRDAGADIEVGEDWISLDMHGKRPKAVNVRTAPHPAFPTDMQAQFTLLNLVAEGTGFITETVFENRFMHVPELSRMGAHAEIESNTVICHGVEKLSGAQVMATDLRASASLVLAGCIAEGTTVVDRIYHIDRGYERIEDKLRALGANIERVKGE
B8: murA I169Q (protein)
chain: MDKFRVQGPTKLQGEVTISGAKNAALPILFAALLAEEPVEIQNVPKLKDVDTSMKLLSQLGAKVERNGSVHIDARDVNVFCAPYDLVKTMRASIWALGPLVARFGQGQVSLPGGCTIGARPVDLHISGLEQLGATIKLEEGYVKASVDGRLKGAHIVMDKVSVGATVTQMCAATLAEGTTIIENAAREPEIVDTANFLITLGAKISGQGTDRIVIEGVERLGGGVYRVLPDRIETGTFLVAAAISRGKIICRNAQPDTLDAVLAKLRDAGADIEVGEDWISLDMHGKRPKAVNVRTAPHPAFPTDMQAQFTLLNLVAEGTGFITETVFENRFMHVPELSRMGAHAEIESNTVICHGVEKLSGAQVMATDLRASASLVLAGCIAEGTTVVDRIYHIDRGYERIEDKLRALGANIERVKGE
B9: murA V240A (protein)
chain: MDKFRVQGPTKLQGEVTISGAKNAALPILFAALLAEEPVEIQNVPKLKDVDTSMKLLSQLGAKVERNGSVHIDARDVNVFCAPYDLVKTMRASIWALGPLVARFGQGQVSLPGGCTIGARPVDLHISGLEQLGATIKLEEGYVKASVDGRLKGAHIVMDKVSVGATVTIMCAATLAEGTTIIENAAREPEIVDTANFLITLGAKISGQGTDRIVIEGVERLGGGVYRVLPDRIETGTFLAAAAISRGKIICRNAQPDTLDAVLAKLRDAGADIEVGEDWISLDMHGKRPKAVNVRTAPHPAFPTDMQAQFTLLNLVAEGTGFITETVFENRFMHVPELSRMGAHAEIESNTVICHGVEKLSGAQVMATDLRASASLVLAGCIAEGTTVVDRIYHIDRGYERIEDKLRALGANIERVKGE
B10: mukF F31W (protein)
chain: MSEFSQTVPELVAWARKNDFSISLPVDRLSWLLAVATLNGERLDGEMSEGELVDAFRHVSDAFEQTSETIGVRANNAINDMVRQRLLNRFTSEQAEGNAIYRLTPLGIGITDYYIRQREFSTLRLSMQLSIVAGELKRAADAAEEGGDEFHWHRNVYAPLKYSVAEIFDSIDLTQRLMDEQQQQVKDDIAQLLNKDWRAAISSCELLLSETSGTLRELQDTLEAAGDKLQANLLRIQDATMTHDDLHFVDRLVFDLQSKLDRIISWGQQSIDLWIGYDRHVHKFIRTAIDMDKNRVFAQRLRQSVQTYFDEPWALTYANADRLLDMRDEEMALRDEEVTGELPEDLEYEEFNEIREQLAAIIEEQLAVYKTRQVPLDLGLVVREYLSQYPRARHFDVARIVIDQAVRLGVAQADFTGLPAKWQPINDYGAKVQAHVIDKY
B11: mukF L52A (protein)
chain: MSEFSQTVPELVAWARKNDFSISLPVDRLSFLLAVATLNGERLDGEMSEGEAVDAFRHVSDAFEQTSETIGVRANNAINDMVRQRLLNRFTSEQAEGNAIYRLTPLGIGITDYYIRQREFSTLRLSMQLSIVAGELKRAADAAEEGGDEFHWHRNVYAPLKYSVAEIFDSIDLTQRLMDEQQQQVKDDIAQLLNKDWRAAISSCELLLSETSGTLRELQDTLEAAGDKLQANLLRIQDATMTHDDLHFVDRLVFDLQSKLDRIISWGQQSIDLWIGYDRHVHKFIRTAIDMDKNRVFAQRLRQSVQTYFDEPWALTYANADRLLDMRDEEMALRDEEVTGELPEDLEYEEFNEIREQLAAIIEEQLAVYKTRQVPLDLGLVVREYLSQYPRARHFDVARIVIDQAVRLGVAQADFTGLPAKWQPINDYGAKVQAHVIDKY
B12: mukF F31Q (protein)
chain: MSEFSQTVPELVAWARKNDFSISLPVDRLSQLLAVATLNGERLDGEMSEGELVDAFRHVSDAFEQTSETIGVRANNAINDMVRQRLLNRFTSEQAEGNAIYRLTPLGIGITDYYIRQREFSTLRLSMQLSIVAGELKRAADAAEEGGDEFHWHRNVYAPLKYSVAEIFDSIDLTQRLMDEQQQQVKDDIAQLLNKDWRAAISSCELLLSETSGTLRELQDTLEAAGDKLQANLLRIQDATMTHDDLHFVDRLVFDLQSKLDRIISWGQQSIDLWIGYDRHVHKFIRTAIDMDKNRVFAQRLRQSVQTYFDEPWALTYANADRLLDMRDEEMALRDEEVTGELPEDLEYEEFNEIREQLAAIIEEQLAVYKTRQVPLDLGLVVREYLSQYPRARHFDVARIVIDQAVRLGVAQADFTGLPAKWQPINDYGAKVQAHVIDKY

Each protein was assayed against Escherichia coli (laboratory strain) (assay: barcode share on antibiotic plates over drug-free plates; higher = less susceptible). Details: antibiotic: carbenicillin; 2× MIC (3.1 µg/mL).
Procedure: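 A pool of E. coli strains, each edited to carry one amino-acid change in an essential protein, was grown for 48 h on minimal glucose agar with or without antibiotic; strain barcodes were sequenced; mean of two replicates.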

Protein	fold change of barcode share
B1	2.89 ± 2.3
B2	0.309 ± 0.0049
B3	0.3592 ± 0.0013
B4	0.284 ± 0.1
B5	0.249 ± 0.014
B6	0.368 ± 0.12
B7	0.212 ± 0.0045
B8	0.326 ± 0.13
B9	0.571 ± 0.51
B10	0.408 ± 0.23
B11	0.263 ± 0.098
B12	0.641 ± 0.17

Same assay, conditions: antibiotic: gentamicin; 2× MIC (MIC 0.45 µg/mL)

Protein	fold change of barcode share
B2	0.00823 ± 0.0032
B3	0.00651 ± 0.00021
B4	< 0.0138
B5	< 0.00553
B6	0.00943 ± 0.0089
B7	< 0.00502
B8	0.15 ± 0.2
B9	< 0.00274
B10	0.00303 ± 0.0022
B11	0.00891 ± 0.0059
B12	0.0285 ± 0.03
